How the values were obtained:
[1] = tested on: model of diet-induced obesity; assay: Diet-induced obesity model, 4 weeks therapy: OGTT and liver lipid content (MRS); type: in vivo, rodent; details: 3 and 30 mg/kg/day
Text: […]. Liver lipid content is detected by magnetic resonance spectroscopy (MRS) in vivo and by analysis of liver triglycerides ex vivo. […]. […] Changes in liver fat content are visible as early as 2 weeks on treatment. The correlation between liver lipid content as measured by MRS and hepatic triglyceride levels as measured ex vivo is r2=0.565 (P<0.0001).

[2] = tested on: TGF-β1, T1MP-1 and collagen (Col3alpha1); assay: mRNA expression of profibrotic factors in the heart of uremic rats; type: in vivo, rat
Text: Characteristic cardiomyopathy with intestinal expansion and fibrosis develops often in uremia. Thus, these antifibrotic properties of DPP-4 inhibitors may be used for the treatment of cardiac and renal injury, uremic heart, cardiac fibrosis and/or cardiomyopathy with intestinal expansion and fibrosis associated with uremia in patients with type 2 diabetes. The antifibrotic action of linagliptin can be an additional benefit for patients with chronic kidney and/or heart diseases that often accompany type 2 diabetes.

ob/ob mice [3] = assay: Wound healing and inflammatory markers in wounded skin of ob/ob mice; type: in vivo
Experimental: Impaired wound healing is a major complication of diabetes mellitus. […] The impact of linagliptin on inflammatory markers in wounded skin is examined and a rationale for the beneficial action of linagliptin on wound healing is provided:
Therefore, the expression of DPP-4 in the skin of diabetic and non-diabetic animals is assessed. Immunohisto-chemistry (IHC) and immunoblots reveal a strong expression of DPP-4 in skin from healthy and diabetic (ob/ob) mice and keratinocytes as the major cellular source of the enzyme. In line, the localization of DPP-4 protein in the skin nicely correlates with whole body autoradiography obtained after [3H]-labelled linagliptin treatment. […] In contrast, in acute wounds of diabetic mice any DPP-4 expression can not be observed. DPP-4 protein, however, is expressed in the late phase of wound repair. The inverse regulation of DPP-4 protein in diabetic versus non-diabetic skin provides a functional basis of the positive action of linagliptin in wound healing processes. Thus, improvement of the wound healing process mediated by a suitable DPP-4 inhibitor, such as linagliptin, depends on the compensation (inhibition) of a dysregulated DPP-4 in diabetic wounds rather than on the anti-glycemic or immunomodulatory effects thereof. Thus, a DPP-4 inhibitor being suitable for improving wound healing is such a DPP-4 inhibitor which can effectively bind to DPP-4 in the skin, e.g. to dysregulated DPP-4 in diabetic wounds, preferably in its therapeutic dose level.

Human isolated islets [4] = assay: Nitrotyrosine concentration in islet lysates; details: 100 nM linagliptin, all diabetic conditions
Human isolated islets [5] = details: induced by H2O2 treatment
[6] = tested on: Japanese patients with type 2 diabetes mellitus; details: 26 weeks
[7] = tested on: type 2 diabetes patients of TCF7L2 rs7903146 CC, CT or TT genotype; assay: Association study of TCF7L2 SNP rs7903146 genotype and HbA1c response, pooled data over four studies (ANCOVA); type: in vivo, human; details: linagliptin or combination treatment, 24 weeks, p value=0.0192
Text: To assess the homogeneity of the treatment effect on the change from baseline of HbA1c after 24 weeks in the genotype subgroups defined by TCF7L2 SNP […] genotypes an analysis of covariance (ANCOVA) model including the treatment interaction with the covariate genotype is applied for pooled data over four studies. The statistical model includes 'Treatment', 'Genotype', 'Study', 'Wash-Out-Period for prior oral antidiabetic drugs (yes/no)', 'Race', as well as the interaction term 'Treatment*Genotype' as fixed effects and 'HbA1c baseline' as a linear covariate. […] Model based pair-wise comparisons between wild-type homozygous (genotype CC) and heterozygous (genotype CT) or rare homozygous (genotype TT) individuals on linagliptin or combination treatment (linagliptin+pioglitazone, linagliptin+metformin, linagliptin+metformin+a sulphonylurea) are performed. […] Results are shown as point estimates and 95% confidence intervals for the mean change in HbA1c from baseline [%] after 24 weeks as estimated by ANCOVA models. The results are given for the whole patient population of the studies (full analysis set, FAS), for the subpopulation for which genetic analyses are performed (full analysis set for pharmacogenetic analyses, FASG), as well as for the subgroups defined by genotype (CC, CT, TT) of this subpopulation. […]

ob/ob mice [8] = assay: ob/ob mice, 14 days treatment: blood glucose AUC and blinded histological scoring of the liver; details: 3 mg/kg/day

CC#CCn1c(N2CCC[C@@H](N)C2)nc2c1c(=O)n(Cc1nc(C)c3ccccc3n1)c(=O)n2C [linagliptin, 1-[(4-methyl-quinazolin-2-yl)methyl]-3-methyl-7-(2-butyn-1-yl)-8-(3-(R)-amino-piperidin-1-yl)-xanthine]
liver fat content (MRS detection) [1]: significantly reduced
mRNA expression of profibrotic factors (TGF-β1, T1MP-1 and collagen (Col3alpha1)) [2]: significantly inhibits
inflammatory markers COX-2 and MIP in wounds (RNase protection assays) (ob/ob mice [3]; 3 mg/kg/day vs mock-treated ob/ob mice): no significant differences
wound healing (ob/ob mice [3]; ob/ob mice): improves wound healing
number of apoptotic infiltrating F4/80-positive macrophages (ob/ob mice [3]; wounds of ob/ob mice, 3 mg/kg/day): does not increase
nitrotyrosine production in islets (Human isolated islets [4]): no elevated nitrotyrosine production
apoptosis (Human isolated islets [5]): blocks apoptosis
FPG, difference of adjusted mean change from baseline vs. VB ([6]; LI 5 mg): -6.9 mg/dL
proportion of patients whose HbA1c level lowered by ≧0.5% ([6]; LI 10 mg): 53.5%
difference in change in HbA1c from baseline between TCF7L2 rs7903146 genotypes TT and CC [7]: statistically significant difference
blood glucose AUC reduction (ob/ob mice [8]): 25%
histological score (hepatic steatosis and inflammation) (ob/ob mice [8]; control 3±0.18): 2.2±0.13

Reference: US9457029B2, “Treatment of genotyped diabetic patients with DPP-IV inhibitors such as linagliptin” (Boehringer Ingelheim International GmbH, priority 2009, dated 2016)
